Consider 49 compounds from PubChem BioAssay AID1454 (National Center for Advancing Translational Sciences (NCATS), 2008).

Hit rate of the full screen: of about 130,000 compounds, about 550 (0.42%) were called active. Roughly 4% stayed inconclusive and do not appear here. Calls follow the shape of the dose curve; as a rule, active = well fitted inhibition curve with a large enough effect; inconclusive = small, poorly fitted or top-dose-only effect, or effect the other way; inactive = flat fitted curve, though single readings scatter. Only a part is listed here, and it is no random draw. Where a structure was tested more than once in an assay, its records may differ in their call.
Potency is read from the fitted curve at half-maximal effect.

The experiment is described as follows: qHTS Assay for Inhibitors of the ERK Signaling Pathway using a Homogeneous Screening Assay; Stimulation with EGF. Also: nearly all actives have a fitted effect of over 55% in size. The settings on record: HEK293-V1b, EGF-stimulated phospho-ERK AlphaScreen; activity change, negative = inhibition: at the top concentration. The source says: NIH Chemical Genomics Center [NCGC]
NIH Molecular Libraries Screening Centers Network [MLSCN]
Assay Submitter (PI): Dr. Wei Zheng, NCGC/NIH
The Ras/extracellular-signal-regulated kinase (ERK) mitogen activated protein (MAP) kinase signaling pathway (ERK1/2 cascade) plays a key role in transmitting signals from the cell surface to the nucleus (Nishida and Gotoh 1993; Chang and Karin, 2001). The cascade is initiated by the small G-protein Ras, which recruits Raf from the cytosol, where activation occurs. Alternatively, this pathway can be activated by elevating intracellular cAMP, or by activation of a receptor tyrosine kinase as epidermal growth factor receptor.
Activation of the ERK pathway is essential in increased cell division and cell survival. Sustained and constitutive activation of the ERK pathway, however, has been linked to uncontrolled cell proliferation, increased cell survival, and tumor progression. Thus, the ERK has been as an attractive target for cancer chemotherapy in the past few years (Sebolt-Leopold and Herrera, 2004). Given its physiological and pathological importance, assessment of ERK phosphorylation has been broadly performed in both basic research and drug discovery. Most assays for the measurement of ERK phosphorylation use the antibody-based detection methods, such as western blot and ELISA. These assays require multiple reagent additions with cell wash steps and are not suitable for high throughout screening.
The current cell-based ERK phosphorylation assay was performed using AlphaScreen platform. AlphaScreen is a two bead-based proximity-dependent chemical energy transfer luminescent assay platform. The assay reagents (ERK SureFire(TM) kit) were supplied from TGR BioSciences (Australia). In the presence of specific antibodies, phosphorylated ERK will bring "donor" and "acceptor" beads to a proximity range (<200 nm), and subsequently lead a chemical luminescent reaction upon exciting donor beads with 680 nm laser. To exclude the assay-related false positives, we used a biotinylated rabbit IgG to perform counter-screen. The biotinylated antibody mimics the phosphorylated ERK1/2 for bringing streptavidin coated beads and protein-A coated beads to a proximity range for the AlphaScreen detection.
NCGC Assay Protocol Summary:
HEK293 cells stably expressing type-1 vasopressin receptor (V1b) were maintained in DMEM medium (Invitrogen, Carlsbad, CA) at 37C under a humidified atmosphere containing 5% CO2 and 95% air. The medium contained 10% FBS, 2 mM L-glutamine, non-essential amino acid, pyruvate and 50 U/ml penicillin and 50 ug/ml streptomycin (Invitrogen). The aliquots of frozen cells were stored at -135C and used for the compound screening. All compounds were screened as titrations from 0.6 nM to 46 uM final concentration. Epidermal growth factor (EGF) was used to stimulate the ERK phosphorylation pathway. The ERK phosphorylation in cells was determined using an AlphaScreen assay kit provided by […]. Data were normalized to the controls for basal activity (DMSO only) and 100% activation (25 nM EGF). AC50 values were determined from concentration-response data modeled with the standard Hill equation.
(1) Seed 4 ul/well of resuspended frozen HEK293 cells containing 2000 cells in white 1536-well plates for overnight with 1% FBS at 37C under a humidified atmosphere containing 5% CO2 and 95% air.
(2) Add 23 nL compounds in DMSO solution. The final titration was 0.6 nM to 46 uM.
(3) Incubate at 37C for 30 min.
(4) Dispense 0.5uL EGF (25 nM in final)
(5) Incubate at 37C for 5 min.
(6) Dispense 0.5uL of 1:2 diluted 5x lysis buffer.
(7) Incubate at 37C for 10 min.
(8) Dispense 1.5uL of mixture of activation buffer and reaction buffer with AlphaScreen beads (streptavidin donor beads and protein-A acceptor beads, 10 ng/well for each).
(9) Incubate at room temperature for 5 hr.
(10) Detect the assay plate in an EnVision plate reader (PerkinElmer) using the AlphaScreen detection mode.
[…]
On to `O=C1c2ccccc2C(=O)c2c(Nc3ccc(CCO)cc3)ccc(O)c21`, for which the Potency was active: 14.1 µM. On the same count and under the same terms, in the case of `COc1ccc(-c2cc(=O)c3c(OC)c(OC)c(OC)c(OC)c3o2)cc1OC` it was “inactive”. As to `C[C@@]12C(=O)OC(=O)[C@@]1(C)[C@@H]1CC[C@@H]2O1`, the “activity change, negative = inhibition” value was inactive: -17.6%. Consider `NCCc1ccc(O)c(O)c1`, for which the Potency entry was “inactive”. On the same count and under the same terms, in the case of `CC1=NN(c2ccccc2)C(=O)C1N=Nc1ccccc1` (centres undefined) it was active: 11.2 µM. Regarding `O=C(Nc1ccccc1)/C(=C/c1ccc2c(c1)OCO2)NC(=O)c1ccco1`, the “activity change, negative = inhibition” value is inactive: 6.36%. Same read-out and setting: then `CC(C)(C)NC(=O)[C@H]1CC[C@H]2[C@@H]3CC[C@H]4NC(=O)C=C[C@]4(C)[C@H]3CC[C@]12C`, with inactive: 24.4%; and `CCCCCCCCN[C@@H](C)[C@H](O)c1ccc(SC(C)C)cc1`, with inactive: 1.04% [at 25.7 µM]. As to `COc1cc(/C=C2/C(=O)c3cccc([N+](=O)[O-])c3C2=O)c(Br)cc1O`, the Potency is active: 28.2 µM. For the compound `CC1CCN(C2=C(NS(=O)(=O)c3ccccc3)C(=O)c3ccccc3C2=O)CC1`, the Potency is active: 17.8 µM. `O=C1C=CC2=C3c4cc(O)c(O)cc4CC3(O)COC2=C1O` (centres undefined): the “activity change, negative = inhibition” value was inactive: 5.21%.

With `N[C@H](Cc1ccc(O)c(O)c1)C(=O)O`, the “activity change, negative = inhibition” value is inactive: 2.39%. In the case of `O=C(NCCc1cn2ccccc2n1)c1cc(COc2ccc3ncccc3c2)on1`, the Potency is active: 28.2 µM.

Turning to `CC(=O)O[C@H]1CC2(C)[C@@H](C[C@@H](O)[C@H]3[C@@]4(C)CC[C@@H](O)[C@@H](C)[C@@H]4CC[C@@]32C)C1=C(CCC=C(C)C)C(=O)O` (some centres undefined), the “activity change, negative = inhibition” value is inactive: 5.18%.

As to `O=C(NCc1ccccc1)C1=C[C@H](c2csc3ccccc23)C[C@H](OCCCCO)O1`, the “activity change, negative = inhibition” value is inactive: -6.6% [at 57.5 µM]. Still for that read-out and setting: then `N[C@@H](Cc1ccc(O)c(O)c1)C(=O)O`, with inactive: 5.25% [at 25.7 µM]. Take `C=CC[n+]1c(/C=C2\C=Cc3cc(C)ccc3N2CC)ccc2ccccc21`: the Potency is active: 22.4 µM.

Regarding `O=C1c2c(O)ccc(O)c2C(=O)c2c(NCCNCCO)ccc(NCCNCCO)c21`, the “activity change, negative = inhibition” value is inactive: 11.8% [at 25.7 µM]. Still for that read-out and setting: in the case of `COC(=O)[C@@]1(Cc2ccc(OC)cc2)[C@H]2c3cc(C(=O)N(C)C)[nH]c3C[C@H]2CN1C(=O)c1ccccc1` it was inactive: -2.58%.

Take `OC(CCN1CCCCC1)(c1ccccc1)c1ccccc1`: the Potency result was “inactive”. Same read-out and setting: then `CCCCN1C(=O)c2ccc(C(=O)Nc3ccc(C)c(S(=O)(=O)N(C)C)c3)cc2C1=O`, with active: 25.1 µM; and `CN1CCC(=C2c3ccccc3CCc3sccc32)CC1`, with “inactive”.

For `CN1CCN(c2c(F)cc3c(=O)c(C(=O)O)cn4c3c2SCC4)CC1`, the “activity change, negative = inhibition” value is inactive: 5.43%. Take `COC(=O)C1=C(C)NC(C)=C(C(=O)OCCN(C)Cc2ccccc2)C1c1cccc([N+](=O)[O-])c1` (centres undefined): the “activity change, negative = inhibition” value is inactive: -2.48% [at 57.5 µM]. For `CCN(CC)c1ccc(NC2=C(Cl)C(=O)c3ccccc3C2=O)cc1`, the Potency is active: 10 µM. The same measure, in the same setting: in the case of `CCCCCCCCCCCC1=C(O)C(=O)C=C(O)C1=O` it was “inactive”.

As to `Cc1cc(N=Nc2ccc(Cl)cc2)cc(CN2CCCC2)c1O`, the Potency is active: 31.6 µM. For `Cc1cccc(CN2CCN([C@@H](c3ccccc3)c3ccc(Cl)cc3)CC2)c1`, the “activity change, negative = inhibition” value is inactive: -1.61% [at 25.7 µM]. For `CCc1oc2ccccc2c1C(=O)c1cc(Br)c(O)c(Br)c1`, the Potency entry was “inactive”. In the case of `CC1(C(=O)NCCc2c[nH]c3ccccc23)C=CCN1C(=O)c1ccccc1` (centres undefined), the “activity change, negative = inhibition” value was inactive: -6.71%.

Regarding `CCC(C)C(=O)OC1CCC=C2C=CC(C)C(CCC3CC(O)CC(=O)O3)[C@@H]21` (some centres undefined), the “activity change, negative = inhibition” value was inactive: 19.1%. Regarding `O=C(Nc1cccc(Br)c1)c1ccc(OC2CSC2)cc1`, the Potency is active: 25.1 µM. As to `C=C[C@@]1(C)CC(=O)[C@@]2(O)[C@@]3(C)[C@@H](O)CCC(C)(C)[C@@H]3[C@H](O)[C@H](OC(C)=O)[C@@]2(C)O1`, the “activity change, negative = inhibition” value is inactive: -5.31%. As for `C[C@@H]1CCC2C(C)(C)C3CC21CC[C@@]3(C)O` (some centres undefined), the “activity change, negative = inhibition” value was inactive: -14.1%. `Fc1cccc(Nc2ncnc3sc4c(c23)CCC4)c1`: the Potency was active: 3.16 µM. `COc1cc2c(cc1OC)-c1c(OC)c(OC)cc3ccnc(c13)C2=O`: the “activity change, negative = inhibition” value was inactive: 0.74%.

Regarding `CC1(C)CCC2=C(O1)c1ccccc1C(=O)C2=O`, the “activity change, negative = inhibition” value is inactive: -5.73%. Take `Cn1c(=O)c(C(=O)COC(=O)c2cc(C(F)(F)F)nc3c(C(F)(F)F)cccc23)c(N)n(CC2CC2)c1=O`: the “activity change, negative = inhibition” value is inactive: 9.47%. The same measure, in the same setting: in the case of `O=C1C(SCCO)=C(SCCO)C(=O)c2ccccc21` it was inactive: -2.02%; in that of `C=CCC1C=C(Cc2ccccc2)CC(CC=C)N1` (centres undefined), inactive: -0.867%. With `CC1(C)CC(C(CCN(Cc2ccccc2)C(=O)c2ccco2)c2ccc(F)cc2)CCO1` (centres undefined), the Potency is active: 22.4 µM.

`COC(=O)C1=C(C)NC(C)=C(C(=O)OCCN(C)Cc2ccccc2)[C@H]1c1cccc([N+](=O)[O-])c1`: the “activity change, negative = inhibition” value is inactive: 9.79% [at 25.7 µM]. Same read-out and setting: in the case of `Cc1csc(=Nc2ccccc2)n1C` it was inactive: -0.549%; in that of `CCC(C)n1ncn(-c2ccc(N3CCN(c4ccc(OCC5COC(Cn6cncn6)(c6ccc(Cl)cc6Cl)O5)cc4)CC3)cc2)c1=O` (centres undefined), inactive: -8.44% [at 57.5 µM]; in that of `Nc1ncnc2c1ncn2[C@@H]1O[C@@H](CO)[C@H](O)[C@H]1O`, inactive: 10.1% [at 25.7 µM]. For `C#CCN(C)CCCOc1ccc(Cl)cc1Cl`, the Potency entry was “inactive”. On the same count and under the same terms, then `O=C1C=C(Nc2ccc(Cl)cc2)CC(c2ccc(Cl)cc2)C1` (centres undefined), with active: 14.1 µM. Regarding `CC(C)(CO)Cc1cc(C(C)(C)C)c(O)c(C(C)(C)C)c1`, the “activity change, negative = inhibition” value was inactive: 3.48%. Consider `CC(=O)/C(=N/Nc1ccccc1[N+](=O)[O-])N1CCCc2ccccc21`, for which the Potency was active: 12.6 µM.
